Assay results from PubChem BioAssay AID504333 (National Center for Advancing Translational Sciences (NCATS), 2011).
The whole screen tested about 360,000 compounds, of which about 16,000 (4.4%) were called active. Inconclusive means that the source gave no clear call. Such entries were picked first, then a sample of the others. Calls follow the shape of the dose curve; as a rule, active = well fitted inhibition curve with a large enough effect; inconclusive = small, poorly fitted or top-dose-only effect; inactive = no such curve, though single readings can be large or run the other way. Potencies beside an inconclusive call are fits to weak or partial responses and may not hold up.

biological target: Bromodomain adjacent to zinc finger domain protein 2B (Homo sapiens) (UniProt Q9UIF8); experiment: qHTS Assay for Inhibitors of BAZ2B; conditions: AlphaScreen BAZ2B-H3K14Ac peptide displacement; activity change, negative = inhibition: at 114 µM (top of the series) unless noted; also: nearly all actives have a fitted effect of over 60% in size
Procedure, shortened: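 Protein-peptide AlphaScreen: BAZ2B 50 nM, b-H3K14Ac 50 nM, 1x PBS pH 7.4 + 0.01% Tween-20. Preincubation 30 min RT; cpd 30 min RT (top 110 uM); beads 20 min RT, light-protected.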
% is scaled to controls: 0 for no effect and ±100 for the full control effect; potency is read from the fitted curve at half-maximal effect; tags tell the direction and shape of the fitted curve.

Sequence of UniProt Q9UIF8 (Q9UIF8 whole entry, looked up, the tested form may be a part): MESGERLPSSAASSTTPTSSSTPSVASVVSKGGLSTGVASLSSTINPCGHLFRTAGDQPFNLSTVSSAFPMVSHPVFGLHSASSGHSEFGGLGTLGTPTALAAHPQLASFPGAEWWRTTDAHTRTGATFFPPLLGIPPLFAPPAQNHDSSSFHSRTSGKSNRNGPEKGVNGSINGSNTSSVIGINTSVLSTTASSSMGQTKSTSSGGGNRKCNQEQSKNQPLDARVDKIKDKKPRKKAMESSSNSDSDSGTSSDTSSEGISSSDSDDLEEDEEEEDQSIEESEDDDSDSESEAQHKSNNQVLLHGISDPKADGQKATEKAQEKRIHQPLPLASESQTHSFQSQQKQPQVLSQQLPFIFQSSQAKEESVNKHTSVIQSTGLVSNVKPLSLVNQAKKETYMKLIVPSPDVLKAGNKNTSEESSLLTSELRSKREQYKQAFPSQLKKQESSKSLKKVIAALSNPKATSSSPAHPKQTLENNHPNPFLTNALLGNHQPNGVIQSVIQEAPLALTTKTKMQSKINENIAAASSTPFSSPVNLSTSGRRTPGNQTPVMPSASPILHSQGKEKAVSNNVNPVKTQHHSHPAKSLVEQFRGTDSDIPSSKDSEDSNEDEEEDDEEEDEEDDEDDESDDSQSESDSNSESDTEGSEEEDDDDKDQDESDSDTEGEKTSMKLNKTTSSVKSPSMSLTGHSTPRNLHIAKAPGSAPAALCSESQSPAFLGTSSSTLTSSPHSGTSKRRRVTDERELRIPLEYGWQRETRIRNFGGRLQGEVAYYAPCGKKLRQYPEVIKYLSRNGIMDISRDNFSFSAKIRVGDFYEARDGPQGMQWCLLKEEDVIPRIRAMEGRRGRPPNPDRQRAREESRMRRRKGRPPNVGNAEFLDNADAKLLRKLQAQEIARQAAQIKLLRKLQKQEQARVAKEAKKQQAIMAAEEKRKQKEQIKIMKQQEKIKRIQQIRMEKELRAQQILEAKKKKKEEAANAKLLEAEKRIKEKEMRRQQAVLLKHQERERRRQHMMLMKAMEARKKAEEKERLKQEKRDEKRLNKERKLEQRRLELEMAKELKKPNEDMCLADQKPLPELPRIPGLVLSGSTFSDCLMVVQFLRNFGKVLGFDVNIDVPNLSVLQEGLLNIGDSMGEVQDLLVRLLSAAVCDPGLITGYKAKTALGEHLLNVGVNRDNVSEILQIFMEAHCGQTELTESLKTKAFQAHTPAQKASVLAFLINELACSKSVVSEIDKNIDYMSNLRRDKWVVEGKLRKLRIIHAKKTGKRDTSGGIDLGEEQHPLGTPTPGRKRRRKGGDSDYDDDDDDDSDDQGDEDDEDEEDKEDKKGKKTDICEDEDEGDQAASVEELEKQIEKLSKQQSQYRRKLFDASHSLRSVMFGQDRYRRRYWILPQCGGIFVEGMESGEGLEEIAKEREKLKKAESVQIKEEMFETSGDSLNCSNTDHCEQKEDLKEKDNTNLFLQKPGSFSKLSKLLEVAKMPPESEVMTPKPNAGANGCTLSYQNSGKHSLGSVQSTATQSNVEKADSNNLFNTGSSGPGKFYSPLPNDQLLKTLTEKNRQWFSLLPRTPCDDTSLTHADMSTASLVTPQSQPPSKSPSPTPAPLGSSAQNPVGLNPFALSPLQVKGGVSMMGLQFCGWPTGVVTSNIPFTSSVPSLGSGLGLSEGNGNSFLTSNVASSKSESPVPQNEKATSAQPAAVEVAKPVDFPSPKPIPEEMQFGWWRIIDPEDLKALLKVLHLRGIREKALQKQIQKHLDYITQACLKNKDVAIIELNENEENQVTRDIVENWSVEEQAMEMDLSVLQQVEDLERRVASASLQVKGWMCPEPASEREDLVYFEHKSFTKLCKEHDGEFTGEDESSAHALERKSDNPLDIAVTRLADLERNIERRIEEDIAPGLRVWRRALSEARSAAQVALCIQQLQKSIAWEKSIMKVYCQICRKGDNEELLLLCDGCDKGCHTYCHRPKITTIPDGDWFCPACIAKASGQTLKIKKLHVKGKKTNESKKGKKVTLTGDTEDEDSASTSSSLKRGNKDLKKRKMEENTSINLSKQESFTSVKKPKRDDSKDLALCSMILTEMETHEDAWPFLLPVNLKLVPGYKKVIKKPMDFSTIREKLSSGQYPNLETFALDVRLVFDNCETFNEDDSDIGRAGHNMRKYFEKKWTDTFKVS

Structure (SMILES)	Potency	activity change, negative = inhibition
Cc1ccccc1C(=O)Nc1ccc(N2CCCCCC2)cc1	active: 31.6 µM	–
O=C(Nc1ccc(S(=O)(=O)NCc2ccco2)cc1)c1ccncc1	inconclusive: 89.1 µM [inhibitor, single point]	–
Cc1ccc(NC(=O)c2cc(S(=O)(=O)c3ccccc3)ccc2Cl)cc1	inconclusive: 100 µM [inhibitor, single point]	–
Cc1ccccc1Nc1c(-c2ccc(N3CCOCC3)cc2)nc2cccc(C)n12	inconclusive: 35.5 µM [inhibitor, partial curve]	–
CCC1CCc2[nH]nc(C(=O)O)c2C1 (centres undefined)	inconclusive: 89.1 µM [inhibitor, single point]	–
Cc1cc(NC(=O)CSc2nnc(C(C)N(C)C)n2Cc2ccccc2)no1 (centres undefined)	inconclusive: 89.1 µM [inhibitor, single point]	–
Cc1nnc(-c2ccc(Oc3ccc(C)c(C)c3)c([N+](=O)[O-])c2)o1	inconclusive: 44.7 µM [inhibitor, partial curve]	–
C=CCNC(=S)N/N=C(\C)c1ccc(OC)cc1	inconclusive: 89.1 µM [inhibitor, single point]	–
Cc1nc(N)nc(SCc2ccc([N+](=O)[O-])cc2)c1N	inconclusive: 79.4 µM [inhibitor, single point]	–
Nc1nc(NC(=O)c2ccccc2Cl)nn1-c1ccccc1	inconclusive: 79.4 µM [inhibitor, single point]	–
C/C(=N\NC(=O)Cc1ccc(Cl)cc1)c1ccccn1	active: 44.7 µM	–
O=C(Nc1nc2ccccc2n1CCOc1ccccc1)c1ccco1	inconclusive: 89.1 µM [inhibitor, single point]	–
CCOc1ccccc1NC(=O)CCS(=O)(=O)c1ccc(Br)cc1	active: 12.6 µM	–
CCOC(=O)c1cnc(SCCc2ccccc2)nc1N	–	inactive: 50.8%
COc1ccc(OC)c(C2C(C(=O)c3ccc(C)o3)=C(O)C(=O)N2CCN2CCOCC2)c1 (centres undefined)	inconclusive: 89.1 µM [inhibitor, single point]	–
Cn1cc(/C=C2\SC(=S)N(NC(=O)c3cccc(Cl)c3)C2=O)c2ccccc21	inconclusive: 100 µM [inhibitor, single point]	–
CN(C(=O)C1CCCCC1)C1(C)CCS(=O)(=O)C1 (centres undefined)	–	inactive: 6.11%
Cc1cccc(C)c1Nc1c(-c2ccccn2)nc2ccc(Cl)cn12	inconclusive: 2 µM [inhibitor, full curve, poor fit]	–
COc1ccc(CNc2nc(NCc3ccc(OC)c(OC)c3)n(C(=O)c3cccs3)n2)cc1OC	inconclusive: 25.1 µM [inhibitor, full curve, poor fit]	–
